# Assay results taken from patent US20250243260A1 (ALPINE IMMUNE SCIENCES, published 2025).
# Key:
# human PD-L1 = molecular target: T1, human PD-L1 (human, UniProt Q9NZQ7); test: flow cytometry, SCC152/PD-L1 cells
# T1 construct: whole, on cells; also called SCC152/PD-L1 cells
# rhu PD-L1 = molecular target: T2, rhu PD-L1 (human, UniProt Q9NZQ7 partial chain, limits assumed); test: SPR (Biacore), captured CD80-Fc, PD-L1 analyte
# T2 construct: also called PD-L1 (SPR analyte)
# [1] = molecular target: T3, human CTLA-4 on CHO cells (human, UniProt P16410 36-223); test: flow cytometry, CHO/CTLA-4 cells
# T3 construct: whole, on cells; also called CHO/CTLA-4
# Description: Binding affinity to CD28 was determined using primary human T cells which endogenously express CD28. Binding to PD-L1 was determined using SCC152 cells transduced with human PD-L1. Binding to CTLA-4 was measured using Chinese hamster ovary (CHO) cells stably transduced to express human CTLA-4.
# For staining and analysis by flow cytometry, 75,000 human T cells, SCC152/PD-L1 cells, or CHO/CTLA-4 cells were plated in 96-well round-bottom plates. Cells were spun down and resuspended in staining buffer (PBS (phosphate buffered saline), 1% BSA (bovine serum albumin), 1 mM EDTA, and 0.1% sodium azide) for 20 minutes to block non-specific binding. Afterwards, cells were centrifuged, stain buffer aspirated, and then resuspended in 50 μL of a 1:5 serial dilution of each CD80-Fc candidate variant starting at 100 nM ending at 0.8 nM. Primary staining was performed on ice for 60 minutes, before washing cells in […] staining buffer three times. PE-conjugated anti-human Fc (Jackson ImmunoResearch, USA) was diluted 1:250 in 50 μL staining buffer and added to cells and incubated another 30 minutes at 4° C. Cells were washed two times in 150 μL stain buffer and then fixed in 2% formaldehyde/PBS for 5 minutes at room temperature. Samples were analyzed CytoFLEX LX flow cytometer (Beckman Coulter, USA). Median Fluorescence Intensity (MFI) was calculated for each cell type using the CytExpert software from Beckman Coulter.
# Binding assays were carried out to assess the specificity and affinity of multivalent proteins to cell-expressed CTLA-4, CD28, and PD-L1 counter structures.
# T3 sequence (P16410 36-223): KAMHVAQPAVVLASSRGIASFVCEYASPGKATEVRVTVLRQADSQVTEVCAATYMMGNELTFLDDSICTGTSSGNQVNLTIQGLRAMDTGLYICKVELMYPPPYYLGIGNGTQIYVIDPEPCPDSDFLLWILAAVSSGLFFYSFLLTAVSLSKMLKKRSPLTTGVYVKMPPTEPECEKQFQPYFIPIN
# Sequence of rhu PD-L1 (Q9NZQ7 19-238 limits assumed): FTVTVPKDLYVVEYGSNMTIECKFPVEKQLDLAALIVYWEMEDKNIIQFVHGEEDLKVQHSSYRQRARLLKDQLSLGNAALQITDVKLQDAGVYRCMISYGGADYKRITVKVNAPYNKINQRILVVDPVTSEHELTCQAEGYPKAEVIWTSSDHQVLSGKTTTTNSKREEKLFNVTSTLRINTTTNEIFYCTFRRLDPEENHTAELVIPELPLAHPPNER
# Sequence of human PD-L1 (Q9NZQ7 19-290): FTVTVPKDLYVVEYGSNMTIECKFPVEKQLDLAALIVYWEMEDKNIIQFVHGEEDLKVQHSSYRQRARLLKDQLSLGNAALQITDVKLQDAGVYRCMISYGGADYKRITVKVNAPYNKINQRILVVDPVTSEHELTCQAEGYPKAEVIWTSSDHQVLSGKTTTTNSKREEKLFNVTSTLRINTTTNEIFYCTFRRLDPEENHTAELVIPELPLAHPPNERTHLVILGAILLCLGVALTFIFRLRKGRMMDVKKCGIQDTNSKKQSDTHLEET
Binder,Anti-Human Fc (MFI) at 0.8 nM (human PD-L1),Anti-Human Fc (MFI) at 4 nM (human PD-L1),Anti-Human Fc (MFI) at 20 nM (human PD-L1),Anti-Human Fc (MFI) at 100 nM (human PD-L1),fold change vs WT CD80 @20 nM (human PD-L1),Complex half-life (rhu PD-L1),koff (rhu PD-L1),also measured
"CD80_242-Fc (Fc fusion, also called V11F, T28Y, M47L, T62S) VIHVTKEVKEFATLSCGHNVSVEELAQYRIYWQKEKKMVLTMMSGDLNIWPEYKNRTIFDISNNLSIVILALRPSDEGTYECVVLKYEKDAFKREHLAEVTLSVKADGSGGGGS[omitted - human IgG4 Fc with S228P (EU numbers)]",963 MFI,1500 MFI,1770 MFI,2500 MFI,2.6 fold,–,–,–
"CD80_171-Fc (Fc fusion, Variant CD80 IgV-GSGGGGS-human IgG4 Fc (S228P); also called E7S, H18I, V20L, A26K, M47L, A71N) VIHVTKSVKEVATLSCGINLSVEELKQTRIYWQKEKKMVLTMMSGDLNIWPEYKNRTIFDITNNLSIVILNLRPSDEGTYECVVLKYEKDAFKREHLAEVTLSVKADGSGGGGS[omitted - human IgG4 Fc with S228P (EU numbers)]",–,–,–,–,–,1.23 min,0.009 s⁻¹,–
"CD80_244-Fc (Fc fusion, also called V11Y, T28Y, M47L, Y87R) VIHVTKEVKEYATLSCGHNVSVEELAQYRIYWQKEKKMVLTMMSGDLNIWPEYKNRTIFDITNNLSIVILALRPSDEGTYECVVLKREKDAFKREHLAEVTLSVKADGSGGGGS[omitted - human IgG4 Fc with S228P (EU numbers)]",819 MFI,1370 MFI,3500 MFI,6820 MFI,5.1 fold,–,–,–
"CD80_243-Fc (Fc fusion, also called V11Y, M47L, A71G, Y87R) VIHVTKEVKEYATLSCGHNVSVEELAQTRIYWQKEKKMVLTMMSGDLNIWPEYKNRTIFDITNNLSIVILGLRPSDEGTYECVVLKREKDAFKREHLAEVTLSVKADGSGGGGS[omitted - human IgG4 Fc with S228P (EU numbers)]",960 MFI,1850 MFI,5100 MFI,9480 MFI,7.5 fold,–,–,–
"WT CD80 ECD-Fc IgG4 (Fc fusion, also called wild-type CD80 ECD-Fc) VIHVTKEVKEVATLSCGHNVSVEELAQTRIYWQKEKKMVLTMMSGDMNIWPEYKNRTIFDITNNLSIVILALRPSDEGTYECVVLKYEKDAFKREHLAEVTLSVKADFPTPSISDFEIPTSNIRRIICSTSGGFPEPHLSWLENGEELNAINTTVSQDPETELYAVSSKLDFNMTTNHSFMCLIKYGHLRVNQTFNWNTTKQEHFPDNGSGGGGS[omitted - human IgG4 Fc with S228P (EU numbers)]",–,–,–,–,–,–,–,Anti-Human Fc (MFI) at 0.8 nM [1]: 217000 MFI; Anti-Human Fc (MFI) at 4 nM [1]: 525000 MFI; Anti-Human Fc (MFI) at 20 nM [1]: 829000 MFI; Anti-Human Fc (MFI) at 100 nM [1]: 856000 MFI; fold change vs WT CD80 @20 nM [1]: 1 fold
"WT CD80 ECD Fc IgG4 (Fc fusion, also called wild-type CD80 ECD-Fc) VIHVTKEVKEVATLSCGHNVSVEELAQTRIYWQKEKKMVLTMMSGDMNIWPEYKNRTIFDITNNLSIVILALRPSDEGTYECVVLKYEKDAFKREHLAEVTLSVKADFPTPSISDFEIPTSNIRRIICSTSGGFPEPHLSWLENGEELNAINTTVSQDPETELYAVSSKLDFNMTTNHSFMCLIKYGHLRVNQTFNWNTTKQEHFPDNGSGGGGS[omitted - human IgG4 Fc with S228P (EU numbers)]",644 MFI,652 MFI,–,637 MFI,1 fold,–,–,–

# Now from value to binder, other results behind:
Anti-Human Fc (MFI) at 0.8 nM (human PD-L1),Anti-Human Fc (MFI) at 4 nM (human PD-L1),Anti-Human Fc (MFI) at 20 nM (human PD-L1),Anti-Human Fc (MFI) at 100 nM (human PD-L1),fold change vs WT CD80 @20 nM (human PD-L1),Complex half-life (rhu PD-L1),koff (rhu PD-L1),Binder,also measured
–,–,–,–,–,1.67 min,0.007 s⁻¹,"CD80_181-Fc (Fc fusion, Variant CD80 IgV-GSGGGGS-human IgG4 Fc (S228P); also called K9S, E10R, V11Y, M47L, A71G) VIHVTKEVSRYATLSCGHNVSVEELAQTRIYWQKEKKMVLTMMSGDLNIWPEYKNRTIFDITNNLSIVILGLRPSDEGTYECVVLKYEKDAFKREHLAEVTLSVKADGSGGGGS[omitted - human IgG4 Fc with S228P (EU numbers)]",–
–,–,–,–,–,0.642 min,0.018 s⁻¹,"CD80_175-Fc (Fc fusion, Variant CD80 IgV-GSGGGGS-human IgG4 Fc (S228P); also called E10S, V11F, T28Y, M47L, T62S) VIHVTKEVKSFATLSCGHNVSVEELAQYRIYWQKEKKMVLTMMSGDLNIWPEYKNRTIFDISNNLSIVILALRPSDEGTYECVVLKYEKDAFKREHLAEVTLSVKADGSGGGGS[omitted - human IgG4 Fc with S228P (EU numbers)]",–
